# Assay results published in the supplement of paper PMC8728848.
# The list shows a part of the results.
# B1: MUC1-SEA-mFcIgG2a (Homo sapiens), P15941 (SEA domain only) (protein)
# chain: DAAQPARRAVRSSSELTSEQKLISEEDLSRLVHNGTSARATTTPASKSTPFSIPSHHSDTPTTLASHSTKTDASSTHHSTVPPLTSSNHSTSPQLSTGVSFFFLSFHISNLQFNSSLEDPSTDYYQELQRDISEMFLQIYKQGGFLGLSNIKFRPGSVVVQLTLAFREGTINVHDVETQFNQYKTEAASRYNLTISDASVSDVPFPFSAQSGSDDDDKALEPRGPTIKPCPPCKCPAPNLLGGPSVFIFPPKIKDVLMISLSPIVTCVVVDVSEDDPDVQISWFVNNVEVHTAQTQTHREDYNSTLRVVSALPIQHQDWMSGKEFKCKVNNKDLPAPIERTISKPKGSVRAPQVYVLPPPEEEMTKKQVTLTCMVTDFMPEDIYVEWTNNGKTELNYKNTEPVLDSDGSYFMYSKLRVEKKNWVERNSYSCSVVHEGLHNHHTTKSFSRTPGKHHHHH
# Assays:
# Assay in all cases: glycan array binding signal (z-score within array); higher = stronger binding
# Conditions in all cases: glycan notation: IUPAC condensed, linker removed
# [1] = target: Gal(b1-4)GlcNAc(b1-3)Gal(b1-4)GlcNAc(b1-3)Gal(b1-4)GlcNAc
# Method in brief: (§1)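 Glycan array data were curated from 3228 arrays in the Consortium for Functional Glycomics database and kept only where the protein sequence was available. Glycan names were converted to IUPAC-condensed notation, and columns mapping to the same glycan were averaged. The binding signal is a within-array Z-score, averaged across arrays of the same protein sequence at different concentrations or buffers and across linkers. Negative Z-scores can be read as non-binding.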
# [2] = target: Gal(b1-4)GlcNAc(b1-3)Gal(b1-4)[Fuc(a1-3)]GlcNAc(b1-3)Gal(b1-4)[Fuc(a1-3)]GlcNAc
# Method in brief: as §1
# [3] = target: Gal(b1-4)GlcNAc(b1-3)GalNAc
# Method in brief: as §1
# [4] = target: Gal(b1-4)GlcNAc(b1-3)[Gal(b1-4)GlcNAc(b1-6)]Gal(b1-4)GlcNAc
# Method in brief: as §1
# [5] = target: Gal(b1-4)GlcNAc(b1-3)[GlcNAc(b1-6)]Gal(b1-4)GlcNAc
# Method in brief: as §1
# [6] = target: Gal(b1-4)GlcNAc(b1-6)Gal(b1-4)GlcNAc
# Method in brief: as §1
# [7] = target: Gal(b1-4)GlcNAc(b1-6)Gal(b1-4)GlcNAc(b1-6)GalNAc
# Method in brief: as §1
# [8] = target: Gal(b1-4)GlcNAc(b1-6)GalNAc
# Method in brief: as §1
# [9] = target: Gal(b1-4)GlcNAc(b1-6)[Gal(b1-3)]GalNAc
# Method in brief: as §1
# Gal3S(b1-3)GalNAc = target: Gal3S(b1-3)GalNAc
# Method in brief: as §1
# Gal3S(b1-3)GlcNAc = target: Gal3S(b1-3)GlcNAc
# Method in brief: as §1
# [10] = target: Gal3S(b1-3)[Fuc(a1-4)]GlcNAc
# Method in brief: as §1
# Gal3S(b1-4)Glc = target: Gal3S(b1-4)Glc
# Method in brief: as §1
# Gal3S(b1-4)Glc6S = target: Gal3S(b1-4)Glc6S
# Method in brief: as §1
# Gal3S(b1-4)GlcNAc = target: Gal3S(b1-4)GlcNAc
# Method in brief: as §1
# Gal3S(b1-4)GlcNAc6S = target: Gal3S(b1-4)GlcNAc6S
# Method in brief: as §1
# [11] = target: Gal3S(b1-4)[Fuc(a1-3)]Glc
# Method in brief: as §1
# Gal3S4S(b1-4)GlcNAc = target: Gal3S4S(b1-4)GlcNAc
# Method in brief: as §1
# Gal3S6S(b1-4)GlcNAc = target: Gal3S6S(b1-4)GlcNAc
# Method in brief: as §1
# Gal3S6S(b1-4)GlcNAc6S = target: Gal3S6S(b1-4)GlcNAc6S
# Method in brief: as §1
# Gal4S(b1-4)GlcNAc = target: Gal4S(b1-4)GlcNAc
# Method in brief: as §1
# Gal4S6S(b1-4)GlcNAc = target: Gal4S6S(b1-4)GlcNAc
# Method in brief: as §1
# Gal6S(b1-4)Glc = target: Gal6S(b1-4)Glc
# Method in brief: as §1
# Gal6S(b1-4)Glc6S = target: Gal6S(b1-4)Glc6S
# Method in brief: as §1
# Gal6S(b1-4)GlcNAc = target: Gal6S(b1-4)GlcNAc
# Method in brief: as §1
# Gal6S(b1-4)GlcNAc6S = target: Gal6S(b1-4)GlcNAc6S
# Method in brief: as §1
# GalNAc(a1-3)Gal = target: GalNAc(a1-3)Gal
# Method in brief: as §1
# GalNAc(a1-3)GalNAc = target: GalNAc(a1-3)GalNAc
# Method in brief: as §1
# GalNAc(b1-3)Gal = target: GalNAc(b1-3)Gal
# Method in brief: as §1
# [12] = target: GalNAc(b1-3)Gal(a1-4)Gal(b1-4)GlcNAc
# Method in brief: as §1
# GalNAc(b1-3)GalNAc = target: GalNAc(b1-3)GalNAc
# Method in brief: as §1
# GalNAc(b1-4)GlcNAc = target: GalNAc(b1-4)GlcNAc
# Method in brief: as §1
# Glc(a1-4)Glc = target: Glc(a1-4)Glc
# Method in brief: as §1
# Glc(a1-6)Glc(a1-6)Glc = target: Glc(a1-6)Glc(a1-6)Glc
# Method in brief: as §1
# Glc(b1-4)Glc = target: Glc(b1-4)Glc
# Method in brief: as §1
# Glc(b1-6)Glc = target: Glc(b1-6)Glc
# Method in brief: as §1
# GlcA(b1-3)Gal = target: GlcA(b1-3)Gal
# Method in brief: as §1
binder,measurement,setting,value
B1,glycan array binding signal (z-score),[1],-0.175
same,glycan array binding signal (z-score),[2],-0.289
same,glycan array binding signal (z-score),[3],-0.513
same,glycan array binding signal (z-score),[4],-0.22
same,glycan array binding signal (z-score),[5],-0.374
same,glycan array binding signal (z-score),[6],-0.164
same,glycan array binding signal (z-score),[7],-0.381
same,glycan array binding signal (z-score),[8],-0.197
same,glycan array binding signal (z-score),[9],-0.33
same,glycan array binding signal (z-score),Gal3S(b1-3)GalNAc,0.226
same,glycan array binding signal (z-score),Gal3S(b1-3)GlcNAc,-0.311
same,glycan array binding signal (z-score),[10],-0.332
same,glycan array binding signal (z-score),Gal3S(b1-4)Glc,1.15
same,glycan array binding signal (z-score),Gal3S(b1-4)Glc6S,2.09
same,glycan array binding signal (z-score),Gal3S(b1-4)GlcNAc,-0.044
same,glycan array binding signal (z-score),Gal3S(b1-4)GlcNAc6S,0.662
same,glycan array binding signal (z-score),[11],-0.067
same,glycan array binding signal (z-score),Gal3S4S(b1-4)GlcNAc,1.68
same,glycan array binding signal (z-score),Gal3S6S(b1-4)GlcNAc,0.879
same,glycan array binding signal (z-score),Gal3S6S(b1-4)GlcNAc6S,3.49
same,glycan array binding signal (z-score),Gal4S(b1-4)GlcNAc,0.176
same,glycan array binding signal (z-score),Gal4S6S(b1-4)GlcNAc,0.978
same,glycan array binding signal (z-score),Gal6S(b1-4)Glc,0.644
same,glycan array binding signal (z-score),Gal6S(b1-4)Glc6S,2.14
same,glycan array binding signal (z-score),Gal6S(b1-4)GlcNAc,-0.439
same,glycan array binding signal (z-score),Gal6S(b1-4)GlcNAc6S,0.906
same,glycan array binding signal (z-score),GalNAc(a1-3)Gal,0.321
same,glycan array binding signal (z-score),GalNAc(a1-3)GalNAc,-0.233
same,glycan array binding signal (z-score),GalNAc(b1-3)Gal,-0.37
same,glycan array binding signal (z-score),[12],-0.118
same,glycan array binding signal (z-score),GalNAc(b1-3)GalNAc,-0.037
same,glycan array binding signal (z-score),GalNAc(b1-4)GlcNAc,-0.184
same,glycan array binding signal (z-score),Glc(a1-4)Glc,-0.359
same,glycan array binding signal (z-score),Glc(a1-6)Glc(a1-6)Glc,-0.276
same,glycan array binding signal (z-score),Glc(b1-4)Glc,-0.267
same,glycan array binding signal (z-score),Glc(b1-6)Glc,0.282
same,glycan array binding signal (z-score),GlcA(b1-3)Gal,0.184
